Measured values taken from publication PMC3084262.
Results are given in words; binding and its absence hold for the method and conditions named. In cells and extracts the contact can be indirect. Some binding calls cover weakened binding; strength is not graded here. For some assays here: Sequences can lack the tags named with a protein.

By UniProt entry, the sequences of proteins in these tests, tags left out.
UniProt P14922: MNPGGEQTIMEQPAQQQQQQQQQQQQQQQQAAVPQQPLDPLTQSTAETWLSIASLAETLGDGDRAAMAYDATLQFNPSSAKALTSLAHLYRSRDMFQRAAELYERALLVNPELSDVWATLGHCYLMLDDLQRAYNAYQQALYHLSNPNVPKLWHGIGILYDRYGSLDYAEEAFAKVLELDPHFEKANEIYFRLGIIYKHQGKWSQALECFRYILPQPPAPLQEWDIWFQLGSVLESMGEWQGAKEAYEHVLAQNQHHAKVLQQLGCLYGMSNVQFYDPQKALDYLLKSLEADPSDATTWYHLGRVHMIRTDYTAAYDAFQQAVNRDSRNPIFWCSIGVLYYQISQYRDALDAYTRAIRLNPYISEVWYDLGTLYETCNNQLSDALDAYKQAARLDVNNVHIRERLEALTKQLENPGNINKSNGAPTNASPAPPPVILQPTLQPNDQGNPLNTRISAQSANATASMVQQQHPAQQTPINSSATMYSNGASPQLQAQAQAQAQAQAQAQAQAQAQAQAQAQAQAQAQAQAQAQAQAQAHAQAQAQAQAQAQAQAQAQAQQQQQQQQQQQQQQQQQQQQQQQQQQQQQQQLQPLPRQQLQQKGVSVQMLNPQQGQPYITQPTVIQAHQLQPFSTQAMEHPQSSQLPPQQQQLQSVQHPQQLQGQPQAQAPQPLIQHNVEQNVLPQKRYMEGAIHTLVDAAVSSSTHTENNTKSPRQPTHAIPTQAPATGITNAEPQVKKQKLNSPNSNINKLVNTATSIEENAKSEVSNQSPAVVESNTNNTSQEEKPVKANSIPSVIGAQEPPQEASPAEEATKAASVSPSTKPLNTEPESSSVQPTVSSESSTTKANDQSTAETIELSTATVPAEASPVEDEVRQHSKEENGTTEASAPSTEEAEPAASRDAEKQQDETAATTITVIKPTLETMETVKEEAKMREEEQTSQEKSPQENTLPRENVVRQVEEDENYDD
UniProt P38889: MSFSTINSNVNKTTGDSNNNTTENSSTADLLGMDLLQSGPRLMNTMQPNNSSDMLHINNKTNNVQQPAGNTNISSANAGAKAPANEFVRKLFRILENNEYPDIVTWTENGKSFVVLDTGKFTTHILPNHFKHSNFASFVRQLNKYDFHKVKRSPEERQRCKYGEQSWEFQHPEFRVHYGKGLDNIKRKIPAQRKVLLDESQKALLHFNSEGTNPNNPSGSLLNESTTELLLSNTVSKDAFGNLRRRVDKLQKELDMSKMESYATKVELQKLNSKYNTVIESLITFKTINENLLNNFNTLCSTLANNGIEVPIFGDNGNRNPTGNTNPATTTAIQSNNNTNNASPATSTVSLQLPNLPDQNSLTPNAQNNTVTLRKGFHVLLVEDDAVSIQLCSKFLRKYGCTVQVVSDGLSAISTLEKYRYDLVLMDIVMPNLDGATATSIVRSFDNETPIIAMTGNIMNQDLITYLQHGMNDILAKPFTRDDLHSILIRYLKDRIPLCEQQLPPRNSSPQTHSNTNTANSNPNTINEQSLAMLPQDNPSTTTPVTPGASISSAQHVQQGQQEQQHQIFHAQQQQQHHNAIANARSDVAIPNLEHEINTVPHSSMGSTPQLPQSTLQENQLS

T1: Tup1-HA (S. cerevisiae), P16649
T1 chain: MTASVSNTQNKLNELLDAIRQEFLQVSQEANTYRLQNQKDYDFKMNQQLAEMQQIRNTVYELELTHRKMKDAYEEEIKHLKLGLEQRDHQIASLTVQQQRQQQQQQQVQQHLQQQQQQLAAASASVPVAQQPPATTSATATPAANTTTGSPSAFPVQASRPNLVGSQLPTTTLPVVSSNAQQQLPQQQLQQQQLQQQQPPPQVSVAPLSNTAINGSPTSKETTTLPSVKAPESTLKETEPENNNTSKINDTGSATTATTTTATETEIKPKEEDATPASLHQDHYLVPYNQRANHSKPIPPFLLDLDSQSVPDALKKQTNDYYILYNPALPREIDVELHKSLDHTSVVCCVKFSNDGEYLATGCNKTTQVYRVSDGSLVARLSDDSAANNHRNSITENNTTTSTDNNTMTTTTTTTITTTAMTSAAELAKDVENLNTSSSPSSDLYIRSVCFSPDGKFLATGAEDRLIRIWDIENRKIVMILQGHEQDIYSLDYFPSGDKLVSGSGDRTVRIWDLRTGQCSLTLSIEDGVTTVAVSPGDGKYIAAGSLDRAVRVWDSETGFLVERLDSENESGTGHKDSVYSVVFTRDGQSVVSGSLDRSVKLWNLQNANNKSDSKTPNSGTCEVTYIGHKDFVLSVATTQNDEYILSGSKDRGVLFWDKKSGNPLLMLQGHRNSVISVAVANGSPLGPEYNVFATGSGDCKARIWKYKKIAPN

B1: Myc-tagged Cin5 (protein, UniProt P40917 1-295)
chain: MLMQIKMDNHPFNFQPILASHSMTRDSTKPKKMTDTAFVPSPPVGFIKEENKADLHTISVVASNVTLPQIQLPKIATLEEPGYESRTGSLTDLSGRRNSVNIGALCEDVPNTAGPHIARPVTINNLIPPSLPRLNTYQLRPQLSDTHLNCHFNSNPYTTASHAPFESSYTTASTFTSQPAASYFPSNSTPATRKNSATTNLPSEERRRVSVSLSEQVFNEGERYNNDGQLIGKTGKPLRNTKRAAQNRSAQKAFRQRREKYIKNLEEKSKLFDGLMKENSELKKMIESLKSKLKE
B2: Myc-tagged Yap6 (protein, UniProt Q03935 1-383)
chain: MQNPPLIRPDMYNQGSSSMATYNASEKNLNEHPSPQIAQPSTSQKLPYRINPTTTNGDTDISVNSNPIQPPLPNLMHLSGPSDYRSMHQSPIHPSYIIPPHSNERKQSASYNRPQNAHVSIQPSVVFPPKSYSISYAPYQINPPLPNGLPNQSISLNKEYIAEEQLSTLPSRNTSVTTAPPSFQNSADTAKNSADNNDNNDNVTKPVPDKDTQLISSSGKTLRNTRRAAQNRTAQKAFRQRKEKYIKNLEQKSKIFDDLLAENNNFKSLNDSLRNDNNILIAQHEAIRNAITMLRSEYDVLCNENNMLKNENSIIKNEHNMSRNENENLKLENKRFHAEYIRMIEDIENTKRKEQEQRDEIEQLKKKIRSLEEIVGRHSDSAT
B3: Myc-tagged Nrg1 (protein, UniProt Q03125 1-231)
chain: MFYPYNYSNLNVSTMPALPGISAFDGMQDEENVEISPERKYQTLLPVLTNSHVVENELKHKLNKTAFDFRYQTKSENGSEKWEPKYLITPNLQTRSVSFDNSSVQYNSDSSEKSSLSQLTCNSSIIQQPENGIVSNDAYNKMANSRYSLKTRKQRTDPRNTLSDEEDLEQRRKYICKICARGFTTSGHLARHNRIHTGEKNHCCPYKGCTQRFSRHDNCLQHYRTHLKKGQ
B4: Myc-tagged Phd1 (protein, UniProt P36093 1-366)
chain: MYHVPEMRLHYPLVNTQSNAAITPTRSYDNTLPSFNELSHQSTINLPFVQRETPNAYANVAQLATSPTQAKSGYYCRYYAVPFPTYPQQPQSPYQQAVLPYATIPNSNFQPSSFPVMAVMPPEVQFDGSFLNTLHPHTELPPIIQNTNDTSVARPNNLKSIAAASPTVTATTRTPGVSSTSVLKPRVITTMWEDENTICYQVEANGISVVRRADNNMINGTKLLNVTKMTRGRRDGILRSEKVREVVKIGSMHLKGVWIPFERAYILAQREQILDHLYPLFVKDIESIVDARKPSNKASLTPKSSPAPIKQEPSDNKHEIATEIKPKSIDALSNGASTQGAGELPHLKINHIDTEAQTSRAKNELS
B5: Myc-tagged Hap3 (protein, UniProt P13434 1-144)
chain: MNTNESEHVSTSPEDTQENGGNASSSGSLQQISTLREQDRWLPINNVARLMKNTLPPSAKVSKDAKECMQECVSELISFVTSEASDRCAADKRKTINGEDILISLHALGFENYAEVLKIYLAKYRQQQALKNQLMYEQDDEEVP
B6: Myc-tagged Sko1, Q02100 1-647 (protein)
chain: MSSEERSRQPSTVSTFDLEPNPFEQSFASSKKALSLPGTISHPSLPKELSRNNSTSTITQHSQRSTHSLNSIPEENGNSTVTDNSNHNDVKKDSPSFLPGQQRPTIISPPILTPGGSKRLPPLLLSPSILYQANSTTNPSQNSHSVSVSNSNPSAIGVSSTSGSLYPNSSSPSGTSLIRQPRNSNVTTSNSGNGFPTNDSQMPGFLLNLSKSGLTPNESNIRTGLTPGILTQSYNYPVLPSINKNTITGSKNVNKSVTVNGSIENHPHVNIMHPTVNGTPLTPGLSSLLNLPSTGVLANPVFKSTPTTNTTDGTVNNSISNSNFSPNTSTKAAVKMDNPAEFNAIEHSAHNHKENENLTTQIENNDQFNNKTRKRKRRMSSTSSTSKASRKNSISRKNSAVTTAPAQKDDVENNKISNNVTLDENEEQERKRKEFLERNRVAASKFRKRKKEYIKKIENDLQFYESEYDDLTQVIGKLCGIIPSSSSNSQFNVNVSTPSSSSPPSTSLIALLESSISRSDYSSAMSVLSNMKQLICETNFYRRGGKNPRDDMDGQEDSFNKDTNVVKSENAGYPSVNSRPIILDKKYSLNSGANISKSNTTTNNVGNSAQNIINSCYSVTNPLVINANSDTHDTNKHDVLSTLPHNN

Target: Tup1-HA (S. cerevisiae) (UniProt P16649)
Assay: co-IP; third experiment (Figure 4C): anti-HA antibody IP of Tup1-HA from cleared yeast lysates of strains with a Myc-tagged protein, anti-Ssn6 and anti-Myc blots; Co-IP buffer 50 mM Tris-Cl pH 7.4, 250 mM NaCl, 5 mM EDTA, 0.1% NP40; last wash 500 mM NaCl; 4°C
Conditions: not given

binding | Molecule
binds weakly | B1
binds weakly | B2
binds weakly | B3
binds weakly | B4

Target: Ssn6 (S. cerevisiae (endogenous in yeast cells)) (UniProt P14922)
Assay: co-IP; second set (Figure 4B, longer exposure in Figure S2): anti-Ssn6 antibody IP from cleared yeast lysates of strains with Tup1-HA and a Myc-tagged protein, anti-HA and anti-Myc blots; Co-IP buffer 50 mM Tris-Cl pH 7.4, 250 mM NaCl, 5 mM EDTA, 0.1% NP40; last wash 500 mM NaCl; 4°C
Conditions: not given

binding | Molecule
binds | Tup1-HA (from UniProt P16649 1-713)
binds | Myc-tagged Skn7 (from UniProt P38889 1-622)
binds | B2
binds | B4
no binding | B5

Target: Ssn6 (S. cerevisiae (endogenous in yeast cells)) (UniProt P14922)
Assay: co-IP; Figure 4D: anti-Ssn6 antibody IP from yeast extract treated with DNAse I (100 U/µl) before the IP; EDTA omitted from the Co-IP buffer, then added to 10 mM to stop the reaction; 4°C
Conditions: not given

binding | Molecule
binds | Myc-tagged Skn7 (from UniProt P38889 1-622)
binds | B2
binds | B4

Target: Tup1-HA (S. cerevisiae) (UniProt P16649)
Assay: co-IP; third experiment (Figure 4C): anti-HA antibody IP of Tup1-HA from cleared yeast lysates of strains with a Myc-tagged protein, anti-Ssn6 and anti-Myc blots; Co-IP buffer 50 mM Tris-Cl pH 7.4, 250 mM NaCl, 5 mM EDTA, 0.1% NP40; last wash 500 mM NaCl; 4°C
Conditions: not given
Remark: another data set of the same source

binding | Molecule
binds | Myc-tagged Skn7 (from UniProt P38889 1-622)
binds | Ssn6 (from UniProt P14922 1-966)

Target: Ssn6 (S. cerevisiae (endogenous in yeast cells)) (UniProt P14922)
Assay: co-IP; first experiment (Figure 4A): anti-Ssn6 antibody IP from cleared yeast lysates of strains with Myc-tagged proteins, anti-Myc blot; Co-IP buffer 50 mM Tris-Cl pH 7.4, 250 mM NaCl, 5 mM EDTA, 0.1% NP40; last wash 500 mM NaCl; 4°C
Conditions: not given

binding | Molecule
binds | Tup1-MYC (from UniProt P16649 1-713)
binds | Myc-tagged Skn7 (from UniProt P38889 1-622)
binds | B2
binds weakly | B4
no binding | B5

Target: T1, Tup1-HA (S. cerevisiae), P16649
Assay: co-IP; third experiment (Figure 4C): anti-HA antibody IP of Tup1-HA from cleared yeast lysates of strains with a Myc-tagged protein, anti-Ssn6 and anti-Myc blots; Co-IP buffer 50 mM Tris-Cl pH 7.4, 250 mM NaCl, 5 mM EDTA, 0.1% NP40; last wash 500 mM NaCl; 4°C
Conditions: remark: other sources report otherwise

binding | Molecule
no binding | B6
